Results on five molecules are retold here after paper PMC10236164.

By UniProt entry, the sequences of proteins in these tests, tags left out.
UniProt Q7Z434: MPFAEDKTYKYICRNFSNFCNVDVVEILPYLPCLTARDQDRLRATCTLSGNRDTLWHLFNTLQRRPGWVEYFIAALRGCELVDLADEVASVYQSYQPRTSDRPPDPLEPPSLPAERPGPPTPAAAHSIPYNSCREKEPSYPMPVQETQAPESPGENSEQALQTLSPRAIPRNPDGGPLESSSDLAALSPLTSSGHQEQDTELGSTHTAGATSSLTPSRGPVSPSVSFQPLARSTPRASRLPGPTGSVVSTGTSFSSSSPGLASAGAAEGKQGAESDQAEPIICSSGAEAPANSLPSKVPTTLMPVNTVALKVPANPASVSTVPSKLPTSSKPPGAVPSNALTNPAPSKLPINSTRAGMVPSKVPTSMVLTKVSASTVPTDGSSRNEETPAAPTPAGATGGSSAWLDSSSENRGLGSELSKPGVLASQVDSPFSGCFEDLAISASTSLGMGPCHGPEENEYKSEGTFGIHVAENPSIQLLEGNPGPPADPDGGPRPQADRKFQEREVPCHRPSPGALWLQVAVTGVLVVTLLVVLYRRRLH

The assay concerns the target DENV2 NS2B-Flag (Dengue virus 2, New Guinea C (NGC) strain) (UniProt P14340). As to the kind of experiment: co-IP; HEK293T cells transiently transfected with NS2B-Flag and HA-tagged components for 24 h; lysates incubated with Flag antibody or control IgG and protein G-Sepharose beads for three hours; blots with antibodies against Flag or HA.

No constants are given. Whether binding was seen depends on the method and setting. Binding seen in cells or lysates may run through a third protein. Some results given as binding are weak or reduced against the parent protein; the word gives no strength. Sequences can lack the tags named with a protein.

As to “HA-tagged MAVS (from UniProt Q7Z434 1-540)”, the binding entry is listed as “binds”.

B1: HA-tagged IRF3 (protein, UniProt Q14653 1-427)
chain: MGTPKPRILPWLVSQLDLGQLEGVAWVNKSRTRFRIPWKHGLRQDAQQEDFGIFQAWAEATGAYVPGRDKPDLPTWKRNFRSALNRKEGLRLAEDRSKDPHDPHKIYEFVNSGVGDFSQPDTSPDTNGGGSTSDTQEDILDELLGNMVLAPLPDPGPPSLAVAPEPCPQPLRSPSLDNPTPFPNLGPSENPLKRLLVPGEEWEFEVTAFYRGRQVFQQTISCPEGLRLVGSEVGDRTLPGWPVTLPDPGMSLTDRGVMSYVRHVLSCLGGGLALWRAGQWLWAQRLGHCHTYWAVSEELLPNSGHGPDGEVPKDKEGGVFDLGPFIVDLITFTEGSGRSPRYALWFCVGESWPQDQPWTKRLVMVKVVPTCLRALVEMARVGGASSLENTVDLHISNSHPLSLTSDQYKAYLQDLVEGMDFQGPGES
Consider B1, for which the binding entry was “no binding”.

B2: IKKε-HA (enzyme, UniProt Q14164 1-716)
chain: MQSTANYLWHTDDLLGQGATASVYKARNKKSGELVAVKVFNTTSYLRPREVQVREFEVLRKLNHQNIVKLFAVEETGGSRQKVLVMEYCSSGSLLSVLESPENAFGLPEDEFLVVLRCVVAGMNHLRENGIVHRDIKPGNIMRLVGEEGQSIYKLTDFGAARELDDDEKFVSVYGTEEYLHPDMYERAVLRKPQQKAFGVTVDLWSIGVTLYHAATGSLPFIPFGGPRRNKEIMYRITTEKPAGAIAGAQRRENGPLEWSYTLPITCQLSLGLQSQLVPILANILEVEQAKCWGFDQFFAETSDILQRVVVHVFSLSQAVLHHIYIHAHNTIAIFQEAVHKQTSVAPRHQEYLFEGHLCVLEPSVSAQHIAHTTASSPLTLFSTAIPKGLAFRDPALDVPKFVPKVDLQADYNTAKGVLGAGYQALRLARALLDGQELMFRGLHWVMEVLQATCRRTLEVARTSLLYLSSSLGTERFSSVAGTPEIQELKAAAELRSRLRTLAEVLSRCSQNITETQESLSSLNRELVKSRDQVHEDRSIQQIQCCLDKMNFIYKQFKKSRMRPGLGYNEEQIHKLDKVNFSHLAKRLLQVFQEECVQKYQASLVTHGKRMRVVHETRNHLRLVGCSVAACNTEAQGVQESLSKLLEELSHQLLQDRAKGAQASPPPIAPYPSPTRKDLLLHMQELCEGMKLLASDLLDNNRIIERLNRVPAPPDV
On to B2, for which the binding result was “binds”.

B3: HA-tagged RIG-IN (residues 1 to 284) (domain or fragment, UniProt O95786 1-284)
chain: MTTEQRRSLQAFQDYIRKTLDPTYILSYMAPWFREEEVQYIQAEKNNKGPMEAATLFLKFLLELQEEGWFRGFLDALDHAGYSGLYEAIESWDFKKIEKLEEYRLLLKRLQPEFKTRIIPTDIISDLSECLINQECEEILQICSTKGMMAGAEKLVECLLRSDKENWPKTLKLALEKERNKFSELWIVEKGIKDVETEDLEDKMETSDIQIFYQEDPECQNLSENSCPPSEVSDTNLYSPFKPRNYQLELALPAMKGKNTIICAPTGCGKTFVSLLICEHHLKK
For the molecule B3, the binding result is “no binding”.

B4: HA-tagged TBK1 (enzyme, UniProt Q9UHD2 1-729)
chain: MQSTSNHLWLLSDILGQGATANVFRGRHKKTGDLFAIKVFNNISFLRPVDVQMREFEVLKKLNHKNIVKLFAIEEETTTRHKVLIMEFCPCGSLYTVLEEPSNAYGLPESEFLIVLRDVVGGMNHLRENGIVHRDIKPGNIMRVIGEDGQSVYKLTDFGAARELEDDEQFVSLYGTEEYLHPDMYERAVLRKDHQKKYGATVDLWSIGVTFYHAATGSLPFRPFEGPRRNKEVMYKIITGKPSGAISGVQKAENGPIDWSGDMPVSCSLSRGLQVLLTPVLANILEADQEKCWGFDQFFAETSDILHRMVIHVFSLQQMTAHKIYIHSYNTATIFHELVYKQTKIISSNQELIYEGRRLVLEPGRLAQHFPKTTEENPIFVVSREPLNTIGLIYEKISLPKVHPRYDLDGDASMAKAITGVVCYACRIASTLLLYQELMRKGIRWLIELIKDDYNETVHKKTEVVITLDFCIRNIEKTVKVYEKLMKINLEAAELGEISDIHTKLLRLSSSQGTIETSLQDIDSRLSPGGSLADAWAHQEGTHPKDRNVEKLQVLLNCMTEIYYQFKKDKAERRLAYNEEQIHKFDKQKLYYHATKAMTHFTDECVKKYEAFLNKSEEWIRKMLHLRKQLLSLTNQCFDIEEEVSKYQEYTNELQETLPQKMFTASSGIKHTMTPIYPSSNTLVEMTLGMKKLKEEMEGVVKELAENNHILERFGSLTMDGGLRNVDCL
Consider B4, for which the binding result is “no binding”.
